# Reference: the supplement of paper PMC8728848
# The list shows a part of the results.
# B1: Mg3lysM (Mycosphaerella graminicola) (protein)
# chain: APQNPPTSCSAAPQPTGTGSPGTVCGSTTFTNYTVKAGDTLGAIAKQYNSGVCDIAKVNGIDNPDYIKPDQVLSIPANCVTPDNTSCVKPVPVITNTCVLGVGSTYTVKSGDSFSAIATSFNITLASLEARNPQIPNYDLIFPGQVINTPLCPNSVCDSIGTYVIESGDIFYNLAQSNNVTVGQLESLNVNVNVTDIHPGDIIILPHNCHNITASA
# Tests used:
# Assay in all cases: glycan array binding signal (z-score within array); higher = stronger binding
# Details in all cases: glycan notation: IUPAC condensed, linker removed
# [1] = biological target: Fuc(a1-2)Gal(b1-4)[Fuc(a1-3)]GlcNAc(b1-2)Man(a1-3)[Fuc(a1-2)Gal(b1-4)[Fuc(a1-3)]GlcNAc(b1-2)Man(a1-6)]Man(b1-4)GlcNAc(b1-4)[Fuc(a1-6)]GlcNAc
# Outline: (§1)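 Arrays were curated from the Consortium for Functional Glycomics database, 3228 in total, and kept only where the protein sequence was available. Binding is expressed as a within-array Z-score. This score was averaged across arrays of the same protein sequence at different concentrations or buffers and across linkers, and negative values can be read as non-binding.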
# [2] = biological target: Fuc(a1-2)Gal(b1-4)[Fuc(a1-3)]GlcNAc(b1-2)[Fuc(a1-2)Gal(b1-4)[Fuc(a1-3)]GlcNAc(b1-4)]Man(a1-3)[Fuc(a1-2)Gal(b1-4)[Fuc(a1-3)]GlcNAc(b1-2)Man(a1-6)]Man(b1-4)GlcNAc(b1-4)GlcNAc
# Outline: as §1
# [3] = biological target: Fuc(a1-2)Gal(b1-4)[Fuc(a1-3)]GlcNAc(b1-3)Gal(b1-4)[Fuc(a1-3)]GlcNAc
# Outline: as §1
# [4] = biological target: Fuc(a1-2)Gal(b1-4)[Fuc(a1-3)]GlcNAc(b1-3)Gal(b1-4)[Fuc(a1-3)]GlcNAc(b1-3)Gal(b1-4)[Fuc(a1-3)]GlcNAc
# Outline: as §1
# [5] = biological target: Fuc(a1-2)Gal(b1-4)[Fuc(a1-3)]GlcNAc(b1-3)GalNAc
# Outline: as §1
# [6] = biological target: Fuc(a1-2)Gal(b1-4)[Fuc(a1-3)]GlcNAc(b1-3)[Neu5Ac(a2-6)Gal(b1-4)GlcNAc(b1-6)]Gal(b1-4)Glc
# Outline: as §1
# [7] = biological target: Fuc(a1-2)Gal3S(b1-4)GlcNAc
# Outline: as §1
# [8] = biological target: Fuc(a1-2)Gal6S(b1-3)GlcNAc
# Outline: as §1
# [9] = biological target: Fuc(a1-2)Gal6S(b1-3)GlcNAc6S
# Outline: as §1
# Fuc(a1-2)Gal6S(b1-4)Glc = biological target: Fuc(a1-2)Gal6S(b1-4)Glc
# Outline: as §1
# [10] = biological target: Fuc(a1-2)Gal6S(b1-4)Glc6S
# Outline: as §1
# Fuc(a1-2)[Gal(a1-3)]Gal = biological target: Fuc(a1-2)[Gal(a1-3)]Gal
# Outline: as §1
# [11] = biological target: Fuc(a1-2)[Gal(a1-3)]Gal(b1-3)GalNAc
# Outline: as §1
# [12] = biological target: Fuc(a1-2)[Gal(a1-3)]Gal(b1-3)GalNAc(b1-3)Gal(a1-4)Gal(b1-4)Glc
# Outline: as §1
# [13] = biological target: Fuc(a1-2)[Gal(a1-3)]Gal(b1-3)GlcNAc
# Outline: as §1
# [14] = biological target: Fuc(a1-2)[Gal(a1-3)]Gal(b1-3)GlcNAc(b1-2)Man(a1-3)[Fuc(a1-2)[Gal(a1-3)]Gal(b1-3)GlcNAc(b1-2)Man(a1-6)]Man(b1-4)GlcNAc(b1-4)GlcNAc
# Outline: as §1
# [15] = biological target: Fuc(a1-2)[Gal(a1-3)]Gal(b1-3)GlcNAc(b1-2)Man(a1-3)[Fuc(a1-2)[Gal(a1-3)]Gal(b1-3)GlcNAc(b1-2)Man(a1-6)]Man(b1-4)GlcNAc(b1-4)[Fuc(a1-6)]GlcNAc
# Outline: as §1
# [16] = biological target: Fuc(a1-2)[Gal(a1-3)]Gal(b1-3)GlcNAc(b1-3)GalNAc
# Outline: as §1
# [17] = biological target: Fuc(a1-2)[Gal(a1-3)]Gal(b1-3)GlcNAc(b1-6)GalNAc
# Outline: as §1
# [18] = biological target: Fuc(a1-2)[Gal(a1-3)]Gal(b1-4)Glc
# Outline: as §1
# [19] = biological target: Fuc(a1-2)[Gal(a1-3)]Gal(b1-4)GlcNAc
# Outline: as §1
# [20] = biological target: Fuc(a1-2)[Gal(a1-3)]Gal(b1-4)GlcNAc(b1-2)Man
# Outline: as §1
# [21] = biological target: Fuc(a1-2)[Gal(a1-3)]Gal(b1-4)GlcNAc(b1-2)Man(a1-3)[Fuc(a1-2)[Gal(a1-3)]Gal(b1-4)GlcNAc(b1-2)Man(a1-6)]Man(b1-4)GlcNAc(b1-4)GlcNAc
# Outline: as §1
# [22] = biological target: Fuc(a1-2)[Gal(a1-3)]Gal(b1-4)GlcNAc(b1-2)Man(a1-3)[Fuc(a1-2)[Gal(a1-3)]Gal(b1-4)GlcNAc(b1-2)Man(a1-6)]Man(b1-4)GlcNAc(b1-4)[Fuc(a1-6)]GlcNAc
# Outline: as §1
# [23] = biological target: Fuc(a1-2)[Gal(a1-3)]Gal(b1-4)GlcNAc(b1-3)GalNAc
# Outline: as §1
# [24] = biological target: Fuc(a1-2)[Gal(a1-3)]Gal(b1-4)GlcNAc(b1-3)[Fuc(a1-2)[Gal(a1-3)]Gal(b1-4)GlcNAc(b1-6)]GalNAc
# Outline: as §1
# [25] = biological target: Fuc(a1-2)[Gal(a1-3)]Gal(b1-4)GlcNAc(b1-6)GalNAc
# Outline: as §1
# [26] = biological target: Fuc(a1-2)[Gal(a1-3)]Gal(b1-4)[Fuc(a1-3)]Glc
# Outline: as §1
# [27] = biological target: Fuc(a1-2)[Gal(a1-3)]Gal(b1-4)[Fuc(a1-3)]GlcNAc
# Outline: as §1
# [28] = biological target: Fuc(a1-2)[Gal(a1-3)]Gal(b1-4)[Fuc(a1-3)]GlcNAc(b1-3)GalNAc
# Outline: as §1
# [29] = biological target: Fuc(a1-2)[Gal(a1-4)]Gal(b1-4)GlcNAc
# Outline: as §1
# [30] = biological target: Fuc(a1-2)[GalNAc(a1-3)]Gal
# Outline: as §1
# [31] = biological target: Fuc(a1-2)[GalNAc(a1-3)]Gal(b1-3)GalNAc(a1-3)[Fuc(a1-2)]Gal(b1-4)GlcNAc
# Outline: as §1
# [32] = biological target: Fuc(a1-2)[GalNAc(a1-3)]Gal(b1-3)GalNAc(b1-3)Gal(a1-4)Gal(b1-4)Glc
# Outline: as §1
# [33] = biological target: Fuc(a1-2)[GalNAc(a1-3)]Gal(b1-3)GlcNAc
# Outline: as §1
# [34] = biological target: Fuc(a1-2)[GalNAc(a1-3)]Gal(b1-3)GlcNAc(b1-2)Man(a1-3)[Fuc(a1-2)[GalNAc(a1-3)]Gal(b1-3)GlcNAc(b1-2)Man(a1-6)]Man(b1-4)GlcNAc(b1-4)GlcNAc
# Outline: as §1
# [35] = biological target: Fuc(a1-2)[GalNAc(a1-3)]Gal(b1-3)GlcNAc(b1-2)Man(a1-3)[Fuc(a1-2)[GalNAc(a1-3)]Gal(b1-3)GlcNAc(b1-2)Man(a1-6)]Man(b1-4)GlcNAc(b1-4)[Fuc(a1-6)]GlcNAc
# Outline: as §1
# [36] = biological target: Fuc(a1-2)[GalNAc(a1-3)]Gal(b1-3)GlcNAc(b1-3)GalNAc
# Outline: as §1
binder,measurement,setting,value
B1,glycan array binding signal (z-score),[1],-0.046
same,glycan array binding signal (z-score),[2],-0.132
same,glycan array binding signal (z-score),[3],-0.06
same,glycan array binding signal (z-score),[4],-0.102
same,glycan array binding signal (z-score),[5],-0.133
same,glycan array binding signal (z-score),[6],-0.064
same,glycan array binding signal (z-score),[7],-0.003
same,glycan array binding signal (z-score),[8],-0.103
same,glycan array binding signal (z-score),[9],-0.089
same,glycan array binding signal (z-score),Fuc(a1-2)Gal6S(b1-4)Glc,-0.07
same,glycan array binding signal (z-score),[10],-0.1
same,glycan array binding signal (z-score),Fuc(a1-2)[Gal(a1-3)]Gal,-0.086
same,glycan array binding signal (z-score),[11],-0.098
same,glycan array binding signal (z-score),[12],-0.047
same,glycan array binding signal (z-score),[13],-0.116
same,glycan array binding signal (z-score),[14],-0.079
same,glycan array binding signal (z-score),[15],-0.127
same,glycan array binding signal (z-score),[16],-0.104
same,glycan array binding signal (z-score),[17],-0.044
same,glycan array binding signal (z-score),[18],-0.069
same,glycan array binding signal (z-score),[19],-0.081
same,glycan array binding signal (z-score),[20],-0.157
same,glycan array binding signal (z-score),[21],0.058
same,glycan array binding signal (z-score),[22],-0.109
same,glycan array binding signal (z-score),[23],-0.118
same,glycan array binding signal (z-score),[24],-0.1
same,glycan array binding signal (z-score),[25],-0.03
same,glycan array binding signal (z-score),[26],-0.118
same,glycan array binding signal (z-score),[27],-0.092
same,glycan array binding signal (z-score),[28],-0.106
same,glycan array binding signal (z-score),[29],-0.055
same,glycan array binding signal (z-score),[30],-0.111
same,glycan array binding signal (z-score),[31],-0.066
same,glycan array binding signal (z-score),[32],0.006
same,glycan array binding signal (z-score),[33],-0.108
same,glycan array binding signal (z-score),[34],-0.07
same,glycan array binding signal (z-score),[35],-0.077
same,glycan array binding signal (z-score),[36],-0.073
